# Measured values: the supplement of paper PMC8728848
# This is one part of the list.
# Experiments:
# Assay in all cases: glycan array binding signal (z-score within array); higher = stronger binding
# Settings in all cases: glycan notation: IUPAC condensed, linker removed
# [1] = biological target: Neu5Ac(a2-6)Gal(b1-4)GlcNAc(b1-2)Man(a1-3)[Man(a1-6)]Man(b1-4)GlcNAc(b1-4)GlcNAc
# Summary of the method: (§1)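 From the Consortium for Functional Glycomics database, 3228 arrays were curated, keeping only those whose protein sequence was available. Binding is given as a within-array Z-score averaged across arrays sharing a protein sequence and across linkers. Negative Z-scores can be read as non-binding.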
# [2] = biological target: Neu5Ac(a2-6)Gal(b1-4)GlcNAc(b1-2)Man(a1-3)[Neu5Ac(a2-3)Gal(b1-4)GlcNAc(b1-2)Man(a1-6)]Man(b1-4)GlcNAc(b1-4)GlcNAc
# Summary of the method: as §1
# [3] = biological target: Neu5Ac(a2-6)Gal(b1-4)GlcNAc(b1-2)Man(a1-3)[Neu5Ac(a2-6)Gal(b1-4)GlcNAc(b1-2)Man(a1-6)]Man(b1-4)GlcNAc(b1-4)GlcNAc
# Summary of the method: as §1
# [4] = biological target: Neu5Ac(a2-6)Gal(b1-4)GlcNAc(b1-2)Man(a1-3)[Neu5Ac(a2-6)Gal(b1-4)GlcNAc(b1-2)Man(a1-6)]Man(b1-4)GlcNAc(b1-4)[Fuc(a1-6)]GlcNAc
# Summary of the method: as §1
# [5] = biological target: Neu5Ac(a2-6)Gal(b1-4)GlcNAc(b1-2)Man(a1-6)Man(b1-4)GlcNAc(b1-4)GlcNAc
# Summary of the method: as §1
# [6] = biological target: Neu5Ac(a2-6)Gal(b1-4)GlcNAc(b1-2)Man(a1-6)[Gal(b1-4)GlcNAc(b1-2)Man(a1-3)]Man(b1-4)GlcNAc(b1-4)GlcNAc
# Summary of the method: as §1
# [7] = biological target: Neu5Ac(a2-6)Gal(b1-4)GlcNAc(b1-2)Man(a1-6)[GlcNAc(b1-2)Man(a1-3)]Man(b1-4)GlcNAc(b1-4)GlcNAc
# Summary of the method: as §1
# [8] = biological target: Neu5Ac(a2-6)Gal(b1-4)GlcNAc(b1-2)Man(a1-6)[Man(a1-3)]Man(b1-4)GlcNAc(b1-4)GlcNAc
# Summary of the method: as §1
# [9] = biological target: Neu5Ac(a2-6)Gal(b1-4)GlcNAc(b1-2)[Neu5Ac(a2-6)Gal(b1-4)GlcNAc(b1-4)]Man(a1-3)[GlcNAc(b1-4)][Neu5Ac(a2-6)Gal(b1-4)GlcNAc(b1-2)[Neu5Ac(a2-6)Gal(b1-4)GlcNAc(b1-6)]Man(a1-6)]Man(b1-4)GlcNAc(b1-4)GlcNAc
# Summary of the method: as §1
# [10] = biological target: Neu5Ac(a2-6)Gal(b1-4)GlcNAc(b1-2)[Neu5Ac(a2-6)Gal(b1-4)GlcNAc(b1-4)]Man(a1-3)[GlcNAc(b1-4)][Neu5Ac(a2-6)Gal(b1-4)GlcNAc(b1-4)Man(a1-6)]Man(b1-4)GlcNAc(b1-4)GlcNAc
# Summary of the method: as §1
# [11] = biological target: Neu5Ac(a2-6)Gal(b1-4)GlcNAc(b1-2)[Neu5Ac(a2-6)Gal(b1-4)GlcNAc(b1-6)]Man(a1-6)[Neu5Ac(a2-6)Gal(b1-4)GlcNAc(b1-2)Man(a1-3)][GlcNAc(b1-4)]Man(b1-4)GlcNAc(b1-4)GlcNAc
# Summary of the method: as §1
# [12] = biological target: Neu5Ac(a2-6)Gal(b1-4)GlcNAc(b1-3)Gal(b1-3)GlcNAc
# Summary of the method: as §1
# [13] = biological target: Neu5Ac(a2-6)Gal(b1-4)GlcNAc(b1-3)Gal(b1-4)GlcNAc
# Summary of the method: as §1
# [14] = biological target: Neu5Ac(a2-6)Gal(b1-4)GlcNAc(b1-3)Gal(b1-4)GlcNAc(b1-2)Man(a1-3)[Neu5Ac(a2-6)Gal(b1-4)GlcNAc(b1-3)Gal(b1-4)GlcNAc(b1-2)Man(a1-6)]GalNAc
# Summary of the method: as §1
# [15] = biological target: Neu5Ac(a2-6)Gal(b1-4)GlcNAc(b1-3)Gal(b1-4)GlcNAc(b1-3)Gal(b1-4)GlcNAc
# Summary of the method: as §1
# [16] = biological target: Neu5Ac(a2-6)Gal(b1-4)GlcNAc(b1-3)Gal(b1-4)GlcNAc(b1-3)Gal(b1-4)GlcNAc(b1-2)Man(a1-3)[Neu5Ac(a2-6)Gal(b1-4)GlcNAc(b1-3)Gal(b1-4)GlcNAc(b1-3)Gal(b1-4)GlcNAc(b1-2)Man(a1-6)]GalNAc
# Summary of the method: as §1
# [17] = biological target: Neu5Ac(a2-6)Gal(b1-4)GlcNAc(b1-3)Gal(b1-4)GlcNAc(b1-3)GalNAc
# Summary of the method: as §1
# [18] = biological target: Neu5Ac(a2-6)Gal(b1-4)GlcNAc(b1-3)Gal(b1-4)GlcNAc(b1-3)[Neu5Ac(a2-6)Gal(b1-4)GlcNAc(b1-3)Gal(b1-4)GlcNAc(b1-6)]GalNAc
# Summary of the method: as §1
# [19] = biological target: Neu5Ac(a2-6)Gal(b1-4)GlcNAc(b1-3)Gal(b1-4)GlcNAc(b1-6)[Gal(b1-3)]GalNAc
# Summary of the method: as §1
# [20] = biological target: Neu5Ac(a2-6)Gal(b1-4)GlcNAc(b1-3)Gal(b1-4)[Fuc(a1-3)]GlcNAc(b1-3)Gal(b1-4)[Fuc(a1-3)]GlcNAc
# Summary of the method: as §1
# [21] = biological target: Neu5Ac(a2-6)Gal(b1-4)GlcNAc(b1-3)GalNAc
# Summary of the method: as §1
# [22] = biological target: Neu5Ac(a2-6)Gal(b1-4)GlcNAc(b1-3)[Neu5Ac(a2-6)Gal(b1-4)GlcNAc(b1-6)]GalNAc
# Summary of the method: as §1
# [23] = biological target: Neu5Ac(a2-6)Gal(b1-4)GlcNAc(b1-6)GalNAc
# Summary of the method: as §1
# [24] = biological target: Neu5Ac(a2-6)Gal(b1-4)GlcNAc(b1-6)[Gal(b1-3)GlcNAc(b1-3)]Gal(b1-4)Glc
# Summary of the method: as §1
# [25] = biological target: Neu5Ac(a2-6)Gal(b1-4)GlcNAc(b1-6)[Gal(b1-3)]GalNAc
# Summary of the method: as §1
# [26] = biological target: Neu5Ac(a2-6)Gal(b1-4)GlcNAc6S
# Summary of the method: as §1
# Neu5Ac(a2-6)GalNAc = biological target: Neu5Ac(a2-6)GalNAc
# Summary of the method: as §1
# [27] = biological target: Neu5Ac(a2-6)GalNAc(b1-4)GlcNAc
# Summary of the method: as §1
# [28] = biological target: Neu5Ac(a2-6)GalNAc(b1-4)GlcNAc6S
# Summary of the method: as §1
# [29] = biological target: Neu5Ac(a2-6)GlcNAc(b1-4)GlcNAc
# Summary of the method: as §1
# [30] = biological target: Neu5Ac(a2-6)GlcNAc(b1-4)GlcNAc(b1-4)GlcNAc
# Summary of the method: as §1
binder,measurement,setting,value
SialidaseA (Arthrobacter ureafaciens) (protein) MRSNSTSAPSLVRRAATGVLTCAVSIGLLAGLGLPAQAAPTPPNSPTLPPGSFSETNLAADRTAANFFYRIPALTYLGNDVVLAAWDGRPGSAADAPNPNSIVQRRSTDGGKTWGPVQVIAAGHVADASGPRYGYSDPSYIYDAEANKVFAFFVYSKDQGFGGSQFGNDDADRNVISSAVIESSDAGVTWSQPRLITSVTKPGTSKTNPAAGDVRSNFASSGEGIQLKYGPHKGRLIQQYAGDVRQADGSNKIQAYSVYSDDHGVTWHKGANVGDRMDENKTVELSDGRVLLNSRDNANRGYRKVAVSTDGGATYGPVSQDTELPDPANNGAIARMFPNAAQGSADAKKLIFTNANSKTGRENVSARVSCDDGETWPGVRTIRSGFSAYSTVTRLADGKFGVLYEGNYTDNMPFATFDDAWLNYVCAPLAVPAVNIAPSATQEVPVTVTNQEATTLSGATATVYTPSGWSATTVPVPDVAPGASVTVTVALTAPADASGPRSLNAAFTTADGRVSQFTFTATTPVAPQVGLTITGSAPARDVAANPYQAGDVLGYTLNVKSTANVAANSVPLTGTFDSGFLPPAAPNCRYNNLAAGASYNCTTAKHTITAADMERGYFVPEATFSITSTTTPSLTKTVQFTGAAVALRDGLISADISGARTDVGRDLATRPYAAGELVPYAFTVKNTSPFVEQVVPTAGNFSPFLPAGAGNCRYLSLPAGQSYECATPRHAVTAEEVEQGFFVPDTTWEVSAAGQSTRTYRINGGEVDLLVRDAALSATVVAEWKDADGDRFASAGDPVTFTYTVGNAGNVALTGLEAPDAGISLPFLAPGDTATATREHVLTAADVAGGSLAASAFEATARNGSKEVTATAEGQPLELKVQPAQPSKEPELTVQDLEDQTPPFDLGTAFKYRTGQKVSLAGLEYGQWYYVYLNKTGYRLGWMFPTTGDTVEFILPPEVRNGRDDVVVLDKDGRRVSFDRLQVTPKGEKI,glycan array binding signal (z-score),[1],3.4
same,glycan array binding signal (z-score),[2],2.86
same,glycan array binding signal (z-score),[3],2.6
same,glycan array binding signal (z-score),[4],3.44
same,glycan array binding signal (z-score),[5],3.28
same,glycan array binding signal (z-score),[6],3.95
same,glycan array binding signal (z-score),[7],3.32
same,glycan array binding signal (z-score),[8],3.29
same,glycan array binding signal (z-score),[9],1.28
same,glycan array binding signal (z-score),[10],2.78
same,glycan array binding signal (z-score),[11],1.69
same,glycan array binding signal (z-score),[12],0.845
same,glycan array binding signal (z-score),[13],2.72
same,glycan array binding signal (z-score),[14],2.72
same,glycan array binding signal (z-score),[15],1.73
same,glycan array binding signal (z-score),[16],2.69
same,glycan array binding signal (z-score),[17],2.26
same,glycan array binding signal (z-score),[18],3.49
same,glycan array binding signal (z-score),[19],3.09
same,glycan array binding signal (z-score),[20],3.65
same,glycan array binding signal (z-score),[21],1.06
same,glycan array binding signal (z-score),[22],3.9
same,glycan array binding signal (z-score),[23],-0.534
same,glycan array binding signal (z-score),[24],-0.514
same,glycan array binding signal (z-score),[25],2.04
same,glycan array binding signal (z-score),[26],2.34
same,glycan array binding signal (z-score),Neu5Ac(a2-6)GalNAc,1.1
same,glycan array binding signal (z-score),[27],0.64
same,glycan array binding signal (z-score),[28],1.49
same,glycan array binding signal (z-score),[29],1.43
same,glycan array binding signal (z-score),[30],-0.274
